Measurements from the supplement of paper PMC12217912.
The list shows a part of the results. Sequences were assembled here from the parent chain. Inactive controls read about 0.05.

B1: TEV protease; numbered along this chain (parent)
chain: MGESLFKGPRDYNPISSSICHLTNESDGHTTSLYGIGFGPFIITNKHLFRRNNGTLVVQSLHGVFKVKDTTTLQQHLVDGRDMIIIRMPKDFPPFPQKLKFREPQREERICLVTTNFQTKSMSSMVSDTSCTFPSGDGIFWKHWIQTKDGQCGSPLVSTRDGFIVGIHSASNFTNTNNYFTSVPKNFMELLTNQEAQQWVSGWRLNADSVLWGGHKVFMVKPEEPFQPVKEATQL

Variants of: B1
Assay: raw area under fraction-flipped curve 0-4 h after induction (AUC4h, not background-subtracted), DNA-recorder readout of cleavage of the substrate (dimensionless); higher = more cleavage of the substrate by the protease variant
Conditions: temperature: 34 °C; time window: 0-4 h after rhamnose induction
Procedure: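 In vivo DNA recorder in E. coli TOP10(DE3) ΔrhaA at 34 °C. Each TEVp single-site mutant (parent TEVp 0) is paired with a single-site variant of the 7-mer TEVs (canonical ENLYFQ|S). The substrate sits between flexible linkers in a Bxb1-sfGFP-TEVs-SsrA fusion, so cleavage stabilises Bxb1 and speeds flipping of a recombination array, read by NGS. The value is the raw area under the fraction-flipped curve over 0-4 h after rhamnose induction (AUC4h), with ≥20 reads per time point. It is not background-subtracted; inactive controls average about 0.047.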
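Also: Bxb1 expression induced with 0.2% (w/v) L-rhamnose at OD600 near 0.5, cultures sampled hourly, flipped fraction per protease–substrate barcode pair counted by paired-end Illumina sequencing.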

Variant | area with substrate ENLYAQS | area with substrate ENLYDQS | area with substrate ENLYEQS | area with substrate ENLYGQS | area with substrate ENLYHQS | area with substrate ENLYKQS | area with substrate ENLYMQS | area with substrate ENLYSQS | area with substrate ENLYTQS | area with substrate ENLYVQS | area with substrate ENLYNQS | area with substrate ENLYPQS | area with substrate ENLYQQS | area with substrate ENLYRQS | area with substrate ENLYWQS | area with substrate ENLYYQS | area with substrate ENLYCQS | area with substrate ENLYLQS | area with substrate ENLYIQS
I167G | 0.051 | 0.0623 | 0.0688 | 0.0343 | 0.0517 | 0.0391 | 0.0425 | 0.0491 | 0.0401 | 0.0501 |  |  |  |  |  |  |  |  | 
L5D | 0.0199 |  | 0.0729 | 0.0684 |  | 0.071 | 0.0988 | 0.0758 |  |  | 0.0598 | 0.0662 | 0.0753 | 0.0524 | 0.0651 | 0.0632 |  |  | 
P9Q | 0.0923 | 0.0572 | 0.0781 | 0.0668 | 0.0592 | 0.0696 |  |  | 0.0784 | 0.122 | 0.0594 |  |  | 0.0423 | 0.0912 | 0.0317 | 0.109 |  | 
H168P | 0.0598 | 0.0283 | 0.0602 |  | 0.0534 | 0.0607 | 0.0401 | 0.0192 | 0.0539 |  | 0.058 | 0.049 |  | 0.0644 |  |  |  | 0.0603 | 
T115M | 0.062 | 0.0694 | 0.0727 | 0.0624 | 0.0658 | 0.0562 | 0.106 | 0.0692 | 0.108 |  | 0.0524 | 0.0871 |  |  | 0.0825 |  |  |  | 0.132
L156N | 0.0557 | 0.0606 | 0.0494 | 0.0531 | 0.0552 | 0.049 | 0.0367 | 0.057 | 0.0543 | 0.0483 | 0.0523 | 0.0627 | 0.0583 |  | 0.0462 | 0.0451 | 0.0608 |  | 0.0489
M88V | 0.0244 | 0.0782 | 0.075 | 0.0589 |  | 0.0648 | 0.0772 |  | 0.0763 |  | 0.0742 | 0.0556 |  | 0.051 | 0.114 |  |  |  | 0.149
M88N | 0.0525 | 0.0348 | 0.0562 |  | 0.0574 | 0.0486 | 0.0625 |  |  |  | 0.0369 | 0.0702 | 0.0721 | 0.0412 | 0.0688 |  | 0.0845 | 0.073 | 0.122
N186A | 0.0816 | 0.0559 | 0.0676 |  |  |  |  |  |  |  |  |  |  | 0.0612 |  |  |  |  | 
P134Y | 0.0658 | 0.0504 | 0.0604 | 0.0769 | 0.0643 | 0.0611 | 0.058 | 0.0697 |  |  | 0.0468 | 0.0608 | 0.0637 | 0.0554 | 0.0623 | 0.085 | 0.0772 | 0.0701 | 0.0856
T23G | 0.0666 | 0.0792 | 0.0606 | 0.0491 | 0.063 | 0.0436 | 0.0694 | 0.0621 |  | 0.0731 | 0.0581 | 0.0564 | 0.055 | 0.0523 | 0.0623 | 0.0584 |  | 0.063 | 0.0958
T72K | 0.0731 | 0.0576 | 0.0648 | 0.0582 |  | 0.0503 | 0.0725 | 0.0707 | 0.0851 | 0.13 | 0.0632 | 0.0729 | 0.0827 | 0.0451 | 0.0901 | 0.0743 | 0.0918 | 0.0758 | 0.118
S32V | 0.0679 | 0.0649 | 0.067 | 0.0745 | 0.0654 | 0.0642 | 0.0832 | 0.0549 | 0.0768 | 0.106 | 0.0743 | 0.0624 |  | 0.0478 | 0.0749 | 0.0624 |  |  | 0.111
V157G | 0.0523 | 0.0545 | 0.0558 | 0.0531 |  |  |  | 0.0077 |  |  | 0.0448 | 0.0566 | 0.0294 | 0.0568 |  |  |  |  | 0.0478
K216A | 0.0574 | 0.0559 | 0.0602 |  | 0.0609 | 0.0448 | 0.0678 |  |  | 0.13 | 0.0605 | 0.063 |  |  |  | 0.0662 |  |  | 0.122
D208Y | 0.0736 | 0.0656 | 0.068 | 0.0555 | 0.0483 | 0.06 | 0.0691 | 0.0661 | 0.0667 | 0.0886 | 0.0571 | 0.0629 | 0.0707 | 0.0536 | 0.0628 |  | 0.0553 | 0.0564 | 0.0684
D208F | 0.0684 | 0.0591 | 0.0647 |  | 0.0361 | 0.0612 | 0.0377 | 0.0611 |  | 0.0599 | 0.0663 | 0.0665 |  | 0.059 | 0.0531 |  |  | 0.0392 | 0.0706
F41D | 0.0576 | 0.0497 | 0.0492 |  | 0.0528 | 0.0393 | 0.0543 | 0.0585 | 0.0535 | 0.0896 | 0.0443 |  | 0.0677 |  | 0.0601 | 0.0593 |  |  | 0.103
T176H | 0.0594 | 0.0604 |  | 0.0592 | 0.0597 |  | 0.0559 |  |  |  | 0.0572 | 0.0668 | 0.075 | 0.0733 | 0.0663 |  |  |  | 
P104N | 0.055 | 0.0546 | 0.0521 |  | 0.0456 | 0.0103 | 0.0354 | 0.0747 |  | 0.0491 | 0.0465 | 0.046 | 0.0414 | 0.0532 | 0.0524 | 0.0275 | 0.0656 |  | 0.0415
P104C | 0.058 | 0.0666 | 0.0624 | 0.0659 | 0.0622 | 0.062 | 0.0697 | 0.0707 | 0.0711 | 0.0763 | 0.0756 | 0.0444 | 0.0592 | 0.0617 | 0.0719 | 0.067 |  |  | 0.0924
D69P | 0.0682 | 0.0627 | 0.0739 | 0.0597 | 0.0614 | 0.0487 | 0.0578 | 0.061 | 0.0974 | 0.0975 | 0.0605 | 0.0689 | 0.0673 | 0.0274 | 0.0609 | 0.0621 |  |  | 0.123
G80I | 0.073 | 0.0528 | 0.0589 | 0.0628 | 0.0679 |  |  |  |  | 0.141 | 0.0209 |  | 0.0513 | 0.0462 | 0.0409 | 0.0677 |  | 0.0878 | 0.0975
G80D | 0.0787 | 0.0468 | 0.0853 |  | 0.0815 | 0.0661 | 0.104 | 0.0813 | 0.09 |  | 0.0586 | 0.074 | 0.062 | 0.0716 | 0.0975 | 0.0637 | 0.107 |  | 0.12
L33S | 0.0595 | 0.057 | 0.06 | 0.0539 | 0.0696 | 0.0308 | 0.0748 | 0.0755 |  | 0.0943 | 0.0605 | 0.0625 | 0.0627 | 0.053 | 0.0726 | 0.0613 |  | 0.0602 | 0.0806
